Some of the results follow.

Experimental findings from the supplement of paper PMC11417369 are described below.

The test system of the experiment is PfAP2-HC AP2 domain (GST-tagged). Nature of the experiment: gcPBM binding intensity (ln(normalized median fluorescence intensity)); higher = stronger DNA binding. Summed up: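 Binding intensity is the highest Masliner-normalised natural-log median intensity over replicate spots in either probe orientation. To obtain it, GST-tagged P. falciparum DNA-binding domains made in E. coli were incubated for 1 h on an Agilent 4 × 180k array of primer-extended double-stranded 36-bp intergenic genomic probes plus negative controls. Detection used Alexa488 anti-GST antibody with scanning at 488 nm.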
For “CCATTTACCCTTGCCATGCACACTTTTTTATAGAAA [CACACA_site3505]”, the “gcPBM binding intensity (ln)” value amounted to 9.91.
To “TTATAAAAATAATATCGTACAAATGATAAAGATTAA [XGTACX_site4893]” belongs 9.53.
The result for “TGAATTCGTCAAAAGCGTACATATAATATCTTCTTG [XGTACX_site8842]” reads 9.63; that for “ACATATATATATATATATAATATTTTATATTTATTA [CACACA_negctrl_site713]”, 9.44; that for “TATATAGTAATATATACACACACTTGTCTTGTAAAA [CACACA_site990]”, 10.2.
To “TTTTTATTTAATATTTTAAAAAAAAATCATTTTTAA [XGTACX_negctrl_site207]” belongs 9.16; to “AAGATTAATATTTTATGTACATATGTAATATATATG [XGTACX_site4367]”, 9.65.
Regarding “ATATTTTTATGATGTATCCAAGAAATGGAACTATAT [CACACA_negctrl_site1268]”, the “gcPBM binding intensity (ln)” value amounted to 9.4.
The result for “AAGAATACACCACGCACACACACTTGAGAAAAAATA [CACACA_site3828]” reads 11.2.
To “ATATATACCTAAGACACACACATATAGATTTATATA [CACACA_site6498]” belongs 10.4.
As for “TTCTTTGTGGTATAGATACACACTATATTAATATGA [CACACA_site2150]”, the “gcPBM binding intensity (ln)” value was 9.97.
With “ATTTTAGATATCCTGCGTACACAAATTGCTTTATTT [XGTACX_site7149]”, the “gcPBM binding intensity (ln)” value was 10.2.
As for “AAAATTTCAATAAATACACACATATATATATATATT [CACACA_site1685]”, the “gcPBM binding intensity (ln)” value was determined as 9.76.
The result for “AAATAATATATGAATGCACACAGTAAAAATTAAAGA [CACACA_site2252]” reads 10.
To “ATAAATTTATATACTTGTACATATATATATTACATA [XGTACX_site6697]” belongs 9.67; to “TATATATACATATACACACACACACCCATATATATA [CACACA_site2246]”, 11.1; to “TTTGAAATAAAAAGGTGTACACTCGATTAATAAATA [XGTACX_site6943]”, 9.65.
The result for “ACTATCATTTTTTTAACACACAAAAAAAATAAAATA [CACACA_site3519]” reads 9.58; that for “TTTTAGCACTTATTATAAGATATCAAAAAGATGGGT [XGTACX_negctrl_site325]”, 9.44; that for TATCTTATTTTAAAAGTGCATGGAAAGGGGTTTTTG, 9.46.
As for “TGTATAAGTGCCGTTATACACACGTTATATAAATAT [CACACA_site438]”, the “gcPBM binding intensity (ln)” value turned out to be 9.61.
The result for “TTTTTTATATTAAATGAAGAATATACAAAATTTTAA [CACACA_negctrl_site558]” reads 9.27; that for “TTTTGTTAGTTTTTTTTCTTATATTACATTTTCACG [CACACA_negctrl_site1466]”, 9.65.
The result for “ATGTAGTCTCAAGACTGTACAAACAAGTAAATAAAA [XGTACX_site4120]” reads 9.68.
The result for “ACATGTGAAGGGAACATAAATTGGGGTTTTATATTG [XGTACX_negctrl_site508]” reads 9.58.
With “AAATTATAAATAATTTGTACATAAAAATTGGTAAAG [XGTACX_site5197]”, the “gcPBM binding intensity (ln)” value amounted to 9.78.
To “GAATATAAAAAAGAATGTACTTGAACAGTCCTAAAA [XGTACX_site745]” belongs 9.63; to “TCCATCCACATATATGTACACACATATATATATATA [CACACA_site8970]”, 9.88; to “GTTAAGGGTATATATACACACATATGTAATACATGA [CACACA_site5650]”, 9.93.
On to ACAATTTTATTTAAAGTGCATGTAAAATTAAAACTT, for which the “gcPBM binding intensity (ln)” value turned out to be 9.53.
The result for “TATACATTTATGTACACACACATATATGTATATTTA [CACACA_site2966]” reads 9.99.
To “AATAAATATCAATACACACACACAAAAGTGAATAAA [CACACA_site3763]” belongs 10.4.
For the sequence “AAAGGAAGAAAAAATAGTACATATATATATATATAA [XGTACX_site766]”, the “gcPBM binding intensity (ln)” value was 9.58.
The result for “ATGAAATATATTATATGTACATATTTATTTTTTATA [XGTACX_site7319]” reads 9.71; that for “ATTTTTTACGTATAGTACAAAGTTTTATGATACATA [CACACA_negctrl_site965]”, 9.61.
The result for “CATTATAAAAAATAAAAAAGAAATAATTGTATATGC [CACACA_negctrl_site478]” reads 9.62.
The result for “AAATAGTAAATAAGGGGTACAAAAAAAAAAAAAAAA [XGTACX_site8362]” reads 9.32.
Regarding “AAATGCTAAAAATAGAGTACAGATAACGAAAAGTGT [XGTACX_site8830]”, the “gcPBM binding intensity (ln)” value is 9.95.
To “AAAAAATTGACTAATGCACACAATTACATATATATA [CACACA_site1689]” belongs 9.85.
To “CAATTTTTCTATCATTGTACTTTTATATAATAGTGT [XGTACX_site1810]” belongs 9.7; to “AATTGTTCTATGATTTGTACACACTTTTTTTTAAAA [XGTACX_site5984]”, 9.86; to “ATTATAAATACACGCACACACACTTATATATATATA [CACACA_site5776]”, 10.5.
The result for “TTTTTTGCTTTCAACACACATACAATCTATATAATC [CACACA_site4125]” reads 9.84; that for “TAAACCTGTAGAGATGCATGCATTGTTAACATGGTG [TGCATGCA_site515]”, 9.69.
With “AAGGAGAAATAAATATTAAAAAATTTATATATATAT [CACACA_negctrl_site1801]”, the “gcPBM binding intensity (ln)” value was 9.48.
As for “TAATATTGCAAATATAAAAAAAAATAAACCATATAT [XGTACX_negctrl_site458]”, the “gcPBM binding intensity (ln)” value came out at 9.76.
The result for “TTCTTTTTTAACAACAAAAAAAAAAAAAAAAAAAAA [TGCATGCA_negctrl_site87]” reads 8.24.
To TTAATTATGGACAGGGTGCACATGAATAATAATACC belongs 9.96.
For “TATATTATAATAAGACGTACAAGGATGTTAAAACTT [XGTACX_site5828]”, the “gcPBM binding intensity (ln)” value was found to be 9.7.
The result for “AAAAAATATTGAAGTACACACATTATAAACTTTTTT [CACACA_site5029]” reads 9.91; that for “ACCTAATTCAAATACAGTACATATACAATATATATA [XGTACX_site2779]”, 9.63.
To “AAAATTAAAAATTACTGTACGTATTAGAGAATAAAT [XGTACX_site2567]” belongs 9.66; to “AAAATATTAATTAATACATGCATATATATATATATA [TGCATGCA_site585]”, 9.52; to “TATATTGTATAAAAATGTACATGCAATAAATTTAGT [XGTACX_site5621]”, 9.78.
Consider “TACATTAACGGATTATTTCTCAATACAACATCATTT [CACACA_negctrl_site981]”, for which the “gcPBM binding intensity (ln)” value amounted to 9.62.
Regarding “GTTTGTATGTCCAAATGTACATATGATTTTATGAAA [XGTACX_site6595]”, the “gcPBM binding intensity (ln)” value was found to be 9.55.
To “ATAGTATACAGACACACACACACACCCATATATATA [CACACA_site1736]” belongs 11.7; to “AGGATATAAATATTCACACACACATGGAGATATATA [CACACA_site6317]”, 10.8.
The result for “TTCTTAAATGTAAATGTATATGTATTAAAAAGAGAA [TGCATGCA_negctrl_site597]” reads 9.31; that for “TTATAATATTAATGTGCACACAATTAAAATATTATA [CACACA_site2046]”, 9.84; that for “TACTGTGTTTTGGTTGTACACACGCTACATTATATA [CACACA_site8863]”, 10.2.
The result for “ATGTTTTATATTTTTTTTTTGTTTGCTTGTTTCCTC [CACACA_negctrl_site870]” reads 9.57; that for “AAGGGAAATATTGAAACACACACGAACCCACGTATT [CACACA_site252]”, 10; that for “ATACTAAATGAACACACACACATATATATATATAAT [CACACA_site4232]”, 10.4.
As for “AAATAAATATATAATACACACAAAAATATAAAATGG [CACACA_site5943]”, the “gcPBM binding intensity (ln)” value came to 10.1.
The result for “TATAACTTTTTTATTACACACCTATGTAATATTATA [CACACA_site944]” reads 9.78; that for “AACAGACATAGAAACACACATACATACATACATACA [CACACA_site2479]”, 9.86.
The result for “TAGTAACTTGTATTCACACAAATTATATTATATTAC [CACACA_site5041]” reads 9.7; that for “TATATAATATATAAATGTACTTTTGTCTTATATGAA [XGTACX_site7211]”, 9.48.
To “ATTATTTAAATTTAACGTACGGAATAAGACATAGAT [XGTACX_site8622]” belongs 9.79; to “ATACTATAATATAAAACACACATATGTACCTTCTAA [CACACA_site7323]”, 9.8.
“TTCAGGTAATAACATTGTACATGTGTATCATAATTA [XGTACX_site6740]”: the “gcPBM binding intensity (ln)” value amounted to 9.62.
As to “TTTTTTTTTTTTTTTTTTTTACAGAAAAATATTAAA [CACACA_negctrl_site128]”, the “gcPBM binding intensity (ln)” value came out at 8.49.
The result for “AATCATTAAAGCATAATGTTTATGATCAATATGAAA [CACACA_negctrl_site887]” reads 9.54; that for “TTATTCTAAAAATATACACACAACAACAAACAAACA [CACACA_site1543]”, 10.6; that for “ATGTGTTTCTTCAATTGTACTAAAAGGTATATATTG [XGTACX_site4608]”, 9.63.
The result for “CAATATGGAAAATAAAGTACGCACACAAAAATTCTC [XGTACX_site4793]” reads 10.
The result for “TAGATAAAATGAACATGTACTCATCTTAATATATAT [XGTACX_site34]” reads 9.58; that for “TACACCCACATATATATACACACTTTTATTTAAATA [CACACA_site1596]”, 9.96.
For “AAAAAAAATAATGTTGCACACAACAACAAACAAAAA [CACACA_site3290]”, the “gcPBM binding intensity (ln)” value was 10.
To “AATATATATATATGTGCACACATATATAATATGTAT [CACACA_site716]” belongs 10.4; to “TTTCATAAATAATAAAATAAAATATGAAGCAAAAGG [CACACA_negctrl_site1767]”, 9.67; to “TAATTTTTTTAAGAGAGTACATGACTCAACAGTTTA [XGTACX_site3103]”, 9.27.
The result for “TTATATCCAACTTGAAAAAAGGTATATGTTTATATA [CACACA_negctrl_site1746]” reads 9.33.
To “TTTTTTTTTTTTTGGAGTACATGTTTATAACATAAT [XGTACX_site1799]” belongs 9.37; to “TGCTCTAATTTATATACACACAAATATGTACACATA [CACACA_site7845]”, 9.92; to “ACAAACAAATAAATATGTACGAATAAATAAAATTTT [XGTACX_site4664]”, 9.97.
For “TTTTTTTTCAAAAATACAAAAAAAAAAGAAAAAAAC [CACACA_negctrl_site625]”, the “gcPBM binding intensity (ln)” value stood at 9.49.
